# Reference: PubChem BioAssay AID463173 (ICCB-Longwood Screening Facility, Harvard Medical School, 2010)
# Out of some 52,000 compounds screened, about 4,300 (8.3%) were called active. Rule as the data show it: active = survival mostly below about 52% (no sharp cut-off); inactive = mostly above about 56%. Some of the results follow.
# Test system: DeltatarO mutant
# Experiment: growth inhibition of S. aureus wild type versus tarO mutant, primary screen, teichoic acid synthesis inhibitors, RN4220, OD600 (AID 463173)
# Conditions: OD600, 18 h, stronger effect = lower value, screened at 18.75 µg/mL (by protocol)
row,Compound,survival
1,COc1ccc(CNC(=O)c2ccc3c(c2)N(Cc2ccccc2F)C(=O)c2ccccc2S3=O)cc1 (stereo unspecified),inactive: 76%
2,CC(=O)Nc1nonc1-c1nnc(SCc2ccccc2C)n1C,active: 42%
3,CCOc1nc(NC(=O)NS(=O)(=O)Oc2cccc(F)c2)nc(-c2ccccc2)n1,inactive: 74%
4,Cc1ccc(NS(=O)(=O)c2ccc3[nH]c4c(c3c2)CCCC4)c(C)c1,inactive: 86%
5,CC1CCc2c(sc3nnn(Cc4ccccc4)c(=O)c23)C1 (stereo unspecified),active: 3%
6,Cc1ccc(-c2nc3ccccn3c2Nc2c(C)cccc2C)o1,active: -2%
7,Cc1nnc(N2CCCC(C(=O)Nc3ccccc3C(F)(F)F)C2)c2nn(-c3ccccc3)c(C)c12 (stereo unspecified),inactive: 99%
8,NC(=O)N(CCC(=O)O)c1ccccc1,inactive: 78%
9,CC(=O)N(Cc1cccnc1)c1nc2c(C)cc(C)cc2s1,inactive: 70%
10,COc1ccc(CNC(=O)c2cc(-c3cccs3)nc3ccccc23)c(OC)c1,inactive: 122%
11,Cc1ccc(NC(=S)N(Cc2ccco2)Cc2cc3cc(C)c(Cl)cc3[nH]c2=O)cc1,inactive: 82%
12,O=C(Nc1nnc(S(=O)(=O)N2CCCCCC2)s1)c1ccc(Br)cc1,inactive: 60%
13,COc1c(Cl)cc(C(=O)Nc2cccc(-c3nc4ccccc4[nH]3)c2)cc1Cl,active: 15%
14,CC(=O)c1ccc(NC2=NS(=O)(=O)c3ccccc32)cc1,inactive: 77%
15,O=C(NCc1ccc(F)cc1)c1ccc(CSc2nc3ccncc3n2Cc2ccc(F)cc2)cc1,inactive: 58%
16,Cc1cc(C)c(Cn2c3ccccc3c3cnn(CC(=O)NCCc4ccccc4)c(=O)c32)c(C)c1,inactive: 133%
17,Cc1ccc(Cl)cc1N1CCN(C(=O)CN2C(=O)COc3ccc(S(=O)(=O)N4CCOCC4)cc32)CC1,inactive: 80%
18,CCc1cccc(C)c1NS(=O)(=O)c1c(C(=O)N2CCCCCC2)c(C)n(C)c1C,inactive: 101%
19,COc1ccc(Cl)cc1NC(=O)Cn1nnc2sc3c(c2c1=O)CCC(C(C)(C)C)C3 (stereo unspecified),inactive: 56%

row,Compound,survival
1,CCOC(=O)c1c(Nc2cccc(O)c2)nnc(-c2ccccc2)c1-c1ccccc1,active: 31%
2,COc1ccc(C(=O)N(Cc2sccc2C)C2CCS(=O)(=O)C2)cc1Cl (stereo unspecified),inactive: 107%
3,Cc1cc(C)c(S(=O)(=O)Nc2cc(-c3cn4ccccc4n3)ccc2C)cc1C,inactive: 56%
4,CCN1CCN(C(=O)c2ccc3c(c2)N(Cc2ccc(Cl)cc2)C(=O)c2ccccc2S3(=O)=O)CC1,inactive: 77%
5,O=C(CCC(=O)c1ccccc1)Nc1cccnc1,inactive: 83%
6,Cc1cc(=O)n2c(C(=O)Nc3ccc(C)c(Cl)c3)c(C(=O)Nc3ccccc3)sc2n1,active: 56%
7,Cc1cccc(N2CCN(C(=O)C3CCN(S(=O)(=O)c4c(C)noc4/C=C/c4ccccc4F)CC3)CC2)c1C,inactive: 85%
8,CC1(C)Cc2ccccc2/C(=C/C(=O)N2CCOCC2)N1,inactive: 96%
9,O=C(NCc1ccc2c(c1)OCO2)c1ccc2c(c1)N(Cc1cccc(Cl)c1)C(=O)c1ccccc1S2,inactive: 84%
10,Cc1ccc(NC(=O)Cn2cc(S(=O)(=O)c3ccc(F)cc3)c(=O)c3cc4c(cc32)OCO4)cc1,inactive: 55%
11,Cc1ccc(NC(=O)CSc2nccn2C2CCCC2)cc1,inactive: 94%
12,COc1cc(Cl)c(C)cc1NC(=O)CCCN1C(=O)C(c2ccccc2)Oc2cccnc21 (stereo unspecified),inactive: 79%
13,COCCNC(=O)Cn1c(=O)n(Cc2ccc(C(=O)NCCc3ccc(OC)c(OC)c3)cc2)c(=O)c2ccccc21,inactive: 123%
14,O=C(CSc1nc2ccccc2nc1Cc1ccc(F)cc1)Nc1ccc2c(c1)OCO2,active: 52%
15,Cc1cccc(Oc2nc3ccccn3c(=O)c2/C=C(\C#N)c2nc3ccccc3s2)c1C,inactive: 65%
16,COc1ccc(NC(=O)C2CCCN(S(=O)(=O)c3cn(C)cn3)C2)cc1Cl (stereo unspecified),inactive: 63%
17,CCOc1ccccc1C1CC(=O)NC(C)=C1C(=O)OC1CCCCCC1 (stereo unspecified),inactive: 68%
18,COc1ccc(CCNC(=O)c2ccc3c(c2)CCN3S(=O)(=O)c2ccc(Cl)cc2)cc1,inactive: 50%
19,Cc1ccc(C)n1-c1cccc2cccnc12,inactive: 53%

row,Compound,survival
1,COc1ccccc1CCNC(=O)c1ccc(NC(=O)N2CC(C)Sc3ccccc32)cc1 (stereo unspecified),inactive: 77%
2,CCCCn1cc(S(=O)(=O)c2ccc(CC)cc2)c(=O)c2cc(F)c(N3CCCC(C)C3)cc21 (stereo unspecified),inactive: 115%
3,COc1ccc(OC)c(NC(=O)c2ccc(-c3nc(CSc4ccccc4)c(C)o3)cc2)c1,inactive: 88%
4,CC(C)(C)C(=O)Cn1c(=O)n(CCCCCC(=O)NCc2ccc3c(c2)OCO3)c(=O)c2sccc21,inactive: 70%
5,COc1ccc(C(=O)NCCn2cc(SCC(=O)Nc3ccccc3)c3ccccc32)cc1OC,inactive: 67%
6,O=C(Nc1ccccc1O)c1ccccn1,inactive: 77%
7,COc1cc(OC)c(NC(=O)c2c(C)nn(-c3ccc(C)cc3)c2-n2cccc2)cc1Cl,inactive: 78%
8,CCCCn1c2ccc(F)cc2c2nnc(SCCN3CCCCC3)nc21,inactive: 179%
9,CC1=NN(c2ccccc2)C(=O)C1C(=O)O (stereo unspecified),inactive: 87%
10,COc1ccc(S(=O)(=O)N2C3CCC2CC(NC(=O)C2CC2)C3)cc1 (stereo unspecified),inactive: 94%
11,O=S(=O)(NCC(c1ccco1)S(=O)(=O)c1cccs1)c1ccc(F)c(C(F)(F)F)c1 (stereo unspecified),active: 37%
12,CCOC(=O)C1CCN(S(=O)(=O)c2cc(-c3onc(C)c3C)ccc2OC)CC1,inactive: 76%
13,Cc1ccc(Cl)cc1N1CCN(C(=O)C2CCCN(S(=O)(=O)c3ccc(Br)s3)C2)CC1 (stereo unspecified),inactive: 113%
14,COc1ccccc1NC(=O)CCn1cnc2ccccc2c1=O,inactive: 92%
15,Cc1cccc(C)c1NC(=O)C(C)Sc1n[nH]c(-c2ccncc2)n1 (stereo unspecified),inactive: 76%
16,Cc1ccc2nc(-c3ccc(Cl)c(NC(=O)c4cccnc4)c3)oc2c1,inactive: 126%
17,CN(C(=O)c1cc2c(=O)oc3ccccc3c2s1)c1ccc(F)cc1,inactive: 60%
18,CCOc1ccc(NC(=O)CSc2nccn2-c2cccc(C)c2C)cc1,inactive: 124%
